Measurements from article PMC5515408.
Some of the results follow. At the low end of the ranking the order means little.

Each sequence was assayed against MAX:MAX (p21) (UniProt P61244-2) (assay: protein-binding microarray (anti-MAX antibody)). Conditions: PBM: 15 mM Tris-HCl pH 7.5, 100 mM KCl, 0.075% NP40, 7.5 mM beta-mercaptoethanol, 375 ng/ul BSA, 8 ng/ul poly(dA-dT):(dA-dT), 550 ng complex, 60 min, room …; high values mean tight binding; double strand, one strand shown; sequences stand for … in CCGGC…TTAATAGCTAAGATTACTATATCGACG.

| Sequence | binding signal (log2 normalized fluorescence) |
| --- | --- |
| TGACTTTCGGTA | -0.88 |
| TGACACGACCTA | 1.2 |
| TGAGGGGTCGTA | 0.336 |
| GGACACTTGGTA | 0.579 |
| TGACGACTTGTA | -0.501 |
| TGTCAGGTGGTG | 3.01 |
| TGAAACTCCGTA | -0.698 |
| TGACTACCGGTA | -0.739 |
| TGAGTTGTCGTA | -0.797 |
| TGATAGGCCGTA | -1.4 |
| TGATCCAGAGTA | -0.902 |
| TGATCGTACGTA | -0.438 |
| TGAAGCTGAGTA | -0.785 |
| TGACTGTGAGTA | -0.0273 |
| TGACGTTTTGTA | -0.833 |
| TGAGATAGGGTA | -1.23 |
| TGACGCATCGTA | 0.0462 |
| TGATGCGTGGTA | 2.25 |
| TGAACTGTCGTA | -0.418 |
| TGAAGCACCGTA | 0.302 |
| TTACACGGGGTC | 3.21 |
| TGAGGAGCGGTA | -0.671 |
| TGATTCACCGTA | -0.472 |

| Sequence | binding signal (log2 normalized fluorescence) |
| --- | --- |
| TGAATCTCTGTA | -1.15 |
| TGATAGCTAGTA | -1.37 |
| TGATGTATCGTA | -0.203 |
| TGACATGTCGTA | 1.53 |
| TGACGGCAGGTA | -0.159 |
| TGACCATGAGTA | 2 |
| CATCACGTGGTA | 3.11 |
| TGAATTGTTGTA | -0.515 |
| TGACTGGGTGTA | -0.0734 |
| TGAGACACCGTA | -0.194 |
| TGACACGGCATA | 0.992 |
| GACCACGTGGTA | 3.3 |
| TGATAAGCTGTA | -1.04 |
| TGAGCGTTGGTA | -0.314 |
| TGAACATTGGTA | -0.132 |
| TGAAGACTCGTA | -0.55 |
| TGAAGTCGTGTA | 0.233 |
| TGAAGCTAAGTA | -1.02 |
| TGGCCCGTTGTA | -0.569 |
| TGAATAACGGTA | -0.806 |
| TGACTTCCAGTA | -0.85 |
| TCACCGGTGGTA | 1.44 |
| TGAAGTTGCGTA | -0.654 |

| Sequence | binding signal (log2 normalized fluorescence) |
| --- | --- |
| TGAATCGACGTA | -0.856 |
| TGAACAGTTGTA | -0.643 |
| TGATGTCAAGTA | -0.151 |
| TGACACGTGTGA | 3.24 |
| TGACCTTTAGTA | -0.715 |
| TGAACTTAAGTA | -0.648 |
| TGATTTCCGGTA | -1.18 |
| TGATCAACTGTA | -0.143 |
| TGACGAATCGTA | -0.835 |
| TGACACGGGGTA | 2.49 |
| TGAGGTAGCGTA | -0.443 |
| TGATCTGGTGTA | -0.555 |
| TGATGTCGGGTA | -0.409 |
| TGACTTAGGGTA | -0.711 |
| TGACAGTTCGTA | -0.332 |
| TGAACTCACGTA | 0.298 |
| TGACACCGTGTA | 1.72 |
| TGAGACGGAGTA | -1.12 |
| TGAAGCGGTGTA | -0.554 |
| TGACGCGCCGTA | 0.209 |
| TGAGCATGCGTA | 2.82 |
| TGAATGCCTGTA | 0.35 |
| TGAGAAGCGGTA | -0.9 |
